Data taken from the supplement of paper PMC4967469.
A lower IC50 marks a more sensitive line; a fit beyond the top or the lowest dose is shown as a bound at that dose. AUC, from the same fit, is the share of area under the viability curve across the 256-fold dose range; the more sensitive the line, the further below 1. Any top dose called inferred was derived from the fitted curves, not read from the paper. For some assays here: Where an entry number is given, a second screen of the drug exists; the two often differ.

Key:
AKT inhibitor VIII = compound: O=c1[nH]c2ccccc2n1C1CCN(Cc2ccc(-c3[nH]c4cc5ncnc5cc4nc3-c3ccccc3)cc2)CC1 [AKT inhibitor VIII]; experiment: Viability of human cancer cell lines after 72 h of drug (GDSC screen); conditions: top dose inferred
Procedure: (§1)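 Human cancer cell lines in 384-well plates, medium with 10% serum, drug for 72 h over a 256-fold dose range (nine 2-fold or five 4-fold steps up to the top dose). Adherent lines were fixed and stained with the nucleic acid dye Syto60, suspension lines read with resazurin; signal relative to control wells, capped at 0 and 100%. One two-parameter sigmoid per drug and line, fitted in a mixed model over all curves with the slope shared within a line.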

AICAR = compound: NC(=O)c1ncn([C@@H]2O[C@H](CO)[C@@H](O)[C@H]2O)c1N [AICAR]; experiment: as above; conditions: top dose 2000 µM; top dose inferred
Procedure: as §1

[1] = top dose 2.56 µM, screen: GDSC drug entry 171
[2] = top dose 10.24 µM, screen: GDSC drug entry 228

Cell Line	AUC (AKT inhibitor VIII; [1])	IC50 (AKT inhibitor VIII; [1]) [µM]	AUC (AKT inhibitor VIII; [2])	IC50 (AKT inhibitor VIII; [2]) [µM]	AUC (AICAR)	IC50 (AICAR) [µM]
MMAC-SF (melanoma, adherent)	0.979	> 2.56	0.877	> 10.2	0.962	> 2000
MN-60 (B-cell leukaemia, suspension)	0.977	> 2.56	0.69	2.23	0.957	> 2000
MOG-G-CCM (glioma, adherent)	0.958	> 2.56	0.889	> 10.2	0.913	> 2000
MOG-G-UVW (glioma, adherent)	0.915	> 2.56	0.822	5.79	0.902	> 2000
MOLM-13 (acute myeloid leukaemia, suspension)	0.944	> 2.56	0.35	0.253	0.579	202
MOLT-4 (lymphoblastic leukaemia, suspension)	0.97	> 2.56	0.422	0.408	0.649	296
MRK-nu-1 (breast, suspension)	0.99	> 2.56	0.974	> 10.2	0.882	1820
MS751 (cervix, adherent)	0.986	> 2.56	0.982	> 10.2	0.806	922
MS-1 (small cell lung carcinoma, suspension)	0.982	> 2.56	0.913	> 10.2	0.664	339
MSTO-211H (mesothelioma, adherent)	0.989	> 2.56	0.991	> 10.2	0.868	1540
MV-4-11 (leukaemia, suspension)	0.946	> 2.56	0.689	1.93	0.442	89.6
MY-M12 (leukaemia, suspension)	0.863	> 2.56	0.721	2.98	0.544	168
MZ1-PC (pancreas, adherent)	0.933	> 2.56	0.828	8.52	0.881	> 2000
MZ2-MEL (melanoma, adherent)	0.96	> 2.56	0.713	2.87	0.907	> 2000
Mewo (melanoma, adherent)	0.972	> 2.56	0.979	> 10.2	0.861	> 2000
Mo-T (hairy cell leukaemia, suspension)	0.987	> 2.56	0.691	2.22	0.704	476
NALM-6 (B-cell leukaemia, suspension)	0.895	2.21	0.361	0.284	0.567	184
NB1 (neuroblastoma, semi-adherent)	0.974	> 2.56	–	–	0.845	1680
NB5 (neuroblastoma, adherent)	0.985	> 2.56	0.933	> 10.2	0.926	> 2000
NB10 (neuroblastoma, adherent)	0.988	> 2.56	0.977	> 10.2	0.968	> 2000
NB12 (neuroblastoma, adherent)	0.918	> 2.56	0.746	4.23	0.961	> 2000
NB13 (neuroblastoma, adherent)	0.99	> 2.56	0.949	> 10.2	0.99	> 2000
NB14 (neuroblastoma, adherent)	0.976	> 2.56	0.962	> 10.2	0.937	> 2000
NB17 (neuroblastoma, adherent)	0.983	> 2.56	0.914	> 10.2	0.908	> 2000

Cell Line	AUC (AKT inhibitor VIII; [1])	IC50 (AKT inhibitor VIII; [1]) [µM]	AUC (AKT inhibitor VIII; [2])	IC50 (AKT inhibitor VIII; [2]) [µM]	AUC (AICAR)	IC50 (AICAR) [µM]
NB69 (neuroblastoma, adherent)	0.955	> 2.56	0.876	8.21	0.83	1060
NB(TU)1-10 (neuroblastoma, adherent)	0.977	> 2.56	0.982	> 10.2	0.959	> 2000
NB-4 (acute myeloid leukaemia, suspension)	0.985	> 2.56	0.698	2.04	0.724	468
NCC021 (kidney, adherent)	–	–	0.91	> 10.2	0.919	> 2000
NCI-H23 (lung adenocarcinoma, adherent)	0.988	> 2.56	0.939	> 10.2	0.927	> 2000
NCI-H28 (mesothelioma, adherent)	0.96	> 2.56	0.954	> 10.2	0.797	1310
NCI-H64 (small cell lung carcinoma, suspension)	0.98	> 2.56	0.837	4.52	0.838	887
NCI-H69 (small cell lung carcinoma, suspension)	0.982	> 2.56	0.831	7.54	0.877	> 2000
NCI-H82 (small cell lung carcinoma, suspension)	0.989	> 2.56	0.952	> 10.2	0.642	301
NCI-H187 (small cell lung carcinoma, suspension)	0.982	> 2.56	0.86	9.84	0.872	> 2000
NCI-H209 (small cell lung carcinoma, suspension)	0.979	> 2.56	0.849	8.53	0.88	> 2000
NCI-H226 (lung squamous cell carcinoma, adherent)	0.982	> 2.56	0.919	> 10.2	0.93	> 2000
NCI-H292 (lung adenocarcinoma, adherent)	0.888	> 2.56	0.84	9.29	0.944	> 2000
NCI-H322M (lung adenocarcinoma, suspension)	0.981	> 2.56	0.852	> 10.2	0.911	> 2000
NCI-H358 (lung adenocarcinoma, adherent)	0.893	> 2.56	0.812	6.28	0.872	> 2000
NCI-H441 (lung adenocarcinoma, adherent)	0.964	> 2.56	0.935	> 10.2	0.85	> 2000
NCI-H446 (small cell lung carcinoma, semi-adherent)	0.984	> 2.56	0.859	9.51	0.945	> 2000
NCI-H460 (large cell lung carcinoma, adherent)	0.884	2.31	0.98	> 10.2	0.919	> 2000
NCI-H510A (small cell lung carcinoma, semi-adherent)	0.983	> 2.56	0.928	> 10.2	0.788	802
NCI-H520 (lung squamous cell carcinoma, adherent)	0.802	1.31	0.55	0.883	0.792	938
NCI-H524 (small cell lung carcinoma, suspension)	0.99	> 2.56	0.903	> 10.2	0.605	235
NCI-H526 (small cell lung carcinoma, suspension)	0.971	> 2.56	0.834	6.29	0.651	321
NCI-H596 (lung adenocarcinoma, adherent)	0.928	> 2.56	0.842	> 10.2	0.896	> 2000
NCI-H630 (large intestine, adherent)	0.88	> 2.56	0.93	> 10.2	0.855	1780

Cell Line	AUC (AKT inhibitor VIII; [1])	IC50 (AKT inhibitor VIII; [1]) [µM]	AUC (AKT inhibitor VIII; [2])	IC50 (AKT inhibitor VIII; [2]) [µM]	AUC (AICAR)	IC50 (AICAR) [µM]
NCI-H647 (non-small cell lung carcinoma, adherent)	0.917	> 2.56	0.784	4.56	0.873	> 2000
NCI-H650 (lung adenocarcinoma, adherent)	0.975	> 2.56	0.918	> 10.2	0.913	> 2000
NCI-H661 (large cell lung carcinoma, adherent)	0.893	> 2.56	0.908	> 10.2	0.883	> 2000
NCI-H716 (large intestine, suspension)	0.982	> 2.56	0.699	2.72	0.597	247
NCI-H727 (lung carcinoid, adherent)	0.932	> 2.56	0.91	> 10.2	0.928	> 2000
NCI-H810 (large cell lung carcinoma, adherent)	0.977	> 2.56	0.91	> 10.2	0.948	> 2000
NCI-H838 (lung adenocarcinoma, adherent)	0.953	> 2.56	0.979	> 10.2	0.87	1990
NCI-H841 (small cell lung carcinoma, adherent)	0.985	> 2.56	0.873	9.95	0.987	> 2000
NCI-H847 (small cell lung carcinoma, adherent)	0.917	> 2.56	0.861	6.11	0.837	992
NCI-H1048 (small cell lung carcinoma, adherent)	0.96	> 2.56	0.773	3.58	0.941	> 2000
NCI-H1092 (small cell lung carcinoma, suspension)	0.939	> 2.56	0.93	> 10.2	0.89	> 2000
NCI-H1155 (large cell lung carcinoma, suspension)	0.993	> 2.56	0.906	9.54	0.831	971
NCI-H1304 (small cell lung carcinoma, suspension)	0.982	> 2.56	0.919	> 10.2	0.81	1150
NCI-H1395 (lung adenocarcinoma, adherent)	0.973	> 2.56	0.79	6.31	0.972	> 2000
NCI-H1417 (small cell lung carcinoma, suspension)	0.981	> 2.56	0.861	> 10.2	0.651	355
NCI-H1435 (lung adenocarcinoma, semi-adherent)	0.944	> 2.56	0.966	> 10.2	0.88	1680
NCI-H1436 (small cell lung carcinoma, suspension)	0.965	> 2.56	0.863	> 10.2	0.961	> 2000
NCI-H1437 (lung adenocarcinoma, adherent)	0.787	1.17	0.59	1.14	0.818	1180
NCI-H1563 (lung adenocarcinoma, adherent)	0.743	0.923	0.564	0.987	0.985	> 2000
NCI-H1568 (lung adenocarcinoma, adherent)	0.948	> 2.56	0.937	> 10.2	0.809	1370
NCI-H1581 (large cell lung carcinoma, semi-adherent)	0.99	> 2.56	0.915	> 10.2	0.906	> 2000
NCI-H1623 (lung adenocarcinoma, adherent)	0.935	> 2.56	0.959	> 10.2	0.945	> 2000
